“And” between values parts separate entries of the source, which are not always exact repeats. Identical values can stand only once. The campaign covered roughly 360,000 compounds. About 6,000 (1.7%) were called active. Inconclusive means that the source gave no clear call. Such entries were picked first, then a sample of the others. The call rests on the fitted dose curve; in most records, active means well fitted cell-killing curve with a large enough effect; inconclusive means small, poorly fitted or top-dose-only effect, or effect the other way; inactive means flat fitted curve, though single readings scatter. No potency is given beside an inconclusive call; the fits are too rough. The source holds several records for some structures; these can differ, active in one and inactive in another.
Test: qHTS for induction of synthetic lethality in tumor cells producing 2HG: qHTS for the HT-1080-NT fibrosarcoma cell line;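 further: NT is the 2HG producing partner of a matched IDH1 knockdown line; nearly all actives have a fitted effect of over 55% in size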;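 on activity, negative = less viability: 0% = DMSO-treated cells and -100% = media-only wells without cells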
Conditions: HT-1080-NT fibrosarcoma viability, CellTiter-Glo ATP luminescence, 48 h; activity, negative = less viability: at 46.1 µM (top of the series) unless noted
Outline: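 Luminescent CellTiter-Glo readout after 48 hours of compound exposure at 37 degrees C defined viability of HT-1080-NT cells. Activity was normalized to DMSO wells and cell-free media wells; concentration-response curves were fitted and assigned curve classes.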
Potency means the concentration at half of the fitted maximal effect; tags describe the fitted curve by direction and shape.

SMILES | Potency | activity, negative = less viability
CN(C)CCCNc1oc(-c2ccc(Cl)cc2)nc1C#N | inconclusive [cytotoxic, single point] | –
C=CC[C@H](CC(=O)N(CCO)Cc1ccccc1)C(=O)N[C@H](COC(=O)[C@@H](CC=C)CC(=O)OC(C)(C)C)Cc1ccccc1 | inconclusive [cytotoxic, single point] | –
Cc1csc(/C(C#N)=N/O)n1 | inactive | –
CC1(C)C=Cc2cc3ccc(=O)oc3cc2O1 | inconclusive [cytotoxic, single point] | –
CCN1CCCC1CN(Cc1cc2ccc(C)cc2[nH]c1=O)C(=S)Nc1ccccc1OC (stereo unspecified) | inconclusive [cytotoxic, single point] | –
COC(=O)[C@@]12C[C@@H](CC(=O)NCCCCc3ccccc3)C(=O)N(Cc3ccccc3)C1=CCC(C)(C)C2 | inconclusive [cytotoxic, single point] | –
COc1ccc(C(=O)NC(=S)Nc2ccc(CN3CCOCC3)cc2)cc1 | inconclusive [cytotoxic, single point] | –
O=C(Nc1ccc(Cl)cc1)OC(CN1CCCCC1)C(F)(F)F (stereo unspecified) | inconclusive [cytotoxic, single point] | –
O=C(CSc1nnc(-c2ccc(Cl)cc2)n1Cc1ccco1)c1cccs1 | – | inconclusive: -46.5%
O=C(NCC1CCCO1)c1ccc(Br)o1 (stereo unspecified) | inconclusive [rising, single point] | –
COC(=O)c1ccccc1NC(=O)Nc1ncccc1C | inactive | –
COc1cc(OC)nc(Nc2nc(C(N)Cc3ccccc3)cs2)n1 (stereo unspecified) | inconclusive [cytotoxic, single point] | –
CC(C)(C)OC(=O)N1CCC(c2c(C(=O)NC3CC3)cnn2-c2ccccc2)CC1 | inconclusive [rising, single point] | –
COc1ccccc1C(=O)Nc1ccccc1SC(=O)c1ccccc1OC | active: 18.4 µM | –
Cn1c2c(c(=O)n(C)c1=O)C(c1ccc(Cl)cc1)C(C#N)=C(N)O2 (stereo unspecified) | inactive | –
CCCCCC1CC(=O)C=C(C)C1C(=O)OC (stereo unspecified) | inactive | –
O=C(N/N=C/c1ccc(Cl)cc1)c1sccc1OCc1ccc(F)cc1 | active: 2.59 µM | –
COC(=O)[C@]12CCCCC=C1N(Cc1ccc3c(c1)OCO3)C(=O)[C@H](CC(=O)NCCCCc1ccccc1)C2 | inconclusive [cytotoxic, single point] | –
COc1ccc(Cn2nnnc2CN(CCCN2CCOCC2)Cc2cc3cc(OC)ccc3[nH]c2=O)cc1 | inactive | –
Cc1nc2c(OCc3ccc(C(F)(F)F)cc3)cccn2c1N(C)Cc1cccs1 | inconclusive [cytotoxic, single point] | –
CCOC(=O)[C@]12CCCC=C1N(Cc1ccccc1)C(=O)[C@H](CC(=O)NCc1cccc(C(F)(F)F)c1)C2 | active: 29.1 µM | –
COc1ccc(N(Cc2cc3ccccc3[nH]c2=O)S(=O)(=O)c2ccc(OC)cc2)cc1 | inconclusive [cytotoxic, partial curve] | –
N#CCCn1cc(/C=N/NC(N)=S)c(-c2ccc(-c3ccccc3)cc2)n1 | inconclusive [cytotoxic, single point] | –
CN(C(=O)CC1C(=O)NCCN1Cc1ccc(F)c(F)c1)C1CCOCC1 (stereo unspecified) | inactive | –

SMILES | Potency | activity, negative = less viability
COC(=O)c1cn(C(=O)c2ccc(C)cc2C)c2ccccc12 | inconclusive [cytotoxic, full curve] | –
CCN1C/C(=C/c2cccs2)c2nc3ccccc3c(C(=O)O)c2C1 | inactive | –
Cc1ccc(-c2noc(CCC(=O)NCCCN3CCN(c4cccc(Cl)c4)CC3)n2)cc1 | inconclusive [cytotoxic, single point] | –
COC(=O)C(C(=O)OC)c1ccccc1NS(=O)(=O)c1c(C)cc(C)cc1C | inconclusive [cytotoxic, single point] | –
O=C(COC(=O)c1cccc(-n2cnnn2)c1)c1ccc(Br)cc1 | inactive | –
CC1(C(=O)NCc2cccs2)CCN1C(=O)Cc1cccc2ccccc12 (stereo unspecified) | inactive | –
Cc1ccc2oc(C(=O)NCC(c3ccco3)N3CCCC3)c(C)c2c1 (stereo unspecified) | inconclusive [cytotoxic, single point] | –
Cc1ccccc1/C=c1\s/c(=C\C(=O)C(C)(C)C)[nH]c1=O | inconclusive [cytotoxic, partial curve] | –
COc1ccccc1CNC(=O)COC(=O)c1ccccc1-c1ccccc1 | inactive | –
COc1cc(C(=O)Oc2ccccc2/C=N/NC(=O)c2ccc(C)cc2)cc(OC)c1OC | inconclusive [cytotoxic, partial curve] | –
Cc1c(C(=O)O)cccc1-c1ccc(/C=C2\SC(=O)NC2=O)o1 | inconclusive [cytotoxic, partial curve] | –
Brc1ccc(N=C(c2ccccc2)c2ccncc2)cc1 | inconclusive [cytotoxic, partial curve] | –
Cn1nc(NC(=O)CC23CC4CC(CC(C4)C2)C3)c2c(F)cccc21 | inactive | –
C(/CCc1ccccc1)=N\Nc1nc2ccccc2[nH]1 | – | inconclusive: -30.1% [cytotoxic]
CCOc1ccccc1NC(=O)c1ccc(NC(=O)C2CCCO2)cc1 (stereo unspecified) | inactive | –
COc1ccc(C(=O)Nc2ccc3nc(N4CCN(C)CC4)cc(C)c3c2)c(OC)c1 | inconclusive [cytotoxic, single point] | –
Cc1ccc(S(=O)(=O)NCC(=O)OCC(=O)N(C)C2CCS(=O)(=O)C2)cc1 (stereo unspecified) | inactive | –
CCc1ccc(NC(=O)NCCN2CCc3ccccc3C2)cc1 | inconclusive [cytotoxic, single point] | –
CC1=C(C(=O)N2CCOCC2)CC(CC(=O)NCc2cccs2)C(=O)N1Cc1ccccc1 (stereo unspecified) | inactive | –
Cc1cc2oc(=O)cc(CN(C)Cc3cccc(F)c3)c2cc1Cl | inactive | –
C[C@H]1CN([C@@H](C)CO)C(=O)c2cccc(NC(=O)Nc3ccc(C(F)(F)F)cc3)c2O[C@@H]1CN(C)Cc1ccc(Cl)c(Cl)c1 | inconclusive [cytotoxic, single point] | –
CCOc1cc(/C=C/C(=O)c2ccc3c(c2)OCCO3)ccc1OCC(=O)N(C)C | inconclusive [cytotoxic, partial curve] | –
CN(CC(=O)Nc1ccccc1Br)C(=O)c1n[nH]c2ccccc12 | – | inconclusive: -30.2% [cytotoxic]
CCOC(=O)c1ccc(NC(=O)Nc2ccon2)cc1 | active: 0.58 µM | –

SMILES | Potency | activity, negative = less viability
Cc1cccc(N=N/C(=C\O)C(=O)c2cccs2)c1 | inconclusive [cytotoxic, partial curve] | –
CN(C)CCCN1c2ccccc2Sc2ccc(Cl)cc21 | active: 15.8 µM and active: 14.6 µM | –
CC1(C)CC(=O)C2=C(C1)OC(N)=C(C#N)C2c1cn(-c2ccccc2)nc1-c1ccc(F)cc1 (stereo unspecified) | inconclusive [cytotoxic, single point] | –
COc1ccc(S(=O)(=O)N(C)C[C@H]2OCc3cnnn3CCCC(=O)N([C@H](C)CO)C[C@@H]2C)cc1 | inactive | –
COc1ccc(S(=O)(=O)Nc2cc(C(=O)NC(C)C)ccc2N2CCOCC2)cc1 | inconclusive [cytotoxic, single point] | –
COc1cc(C(=S)N2CCOCC2)cc(OC)c1O | inconclusive [rising, single point] | –
CCNc1c(NS(=O)(=O)c2ccc(OC)c(Cl)c2)c(=O)oc2ccccc12 | inconclusive [cytotoxic, single point] | –
CCOc1ccc(S(=O)(=O)N2CCN(C(=O)c3cc(-c4ccccc4)nn3-c3ccccc3)CC2)cc1 | inactive | –
Oc1c(Br)cc(Br)cc1/C=N/NC(=S)N[C@H]1CC2C=CC1C2 (stereo partly specified) | inconclusive [cytotoxic, partial curve] | –
CCOc1ccccc1-c1ccc2nccn2c1 | inactive | –
CC12C=CC(=O)C=C1CCC1C2C(O)CC2(C)C1CCC2(O)C(=O)CO (stereo unspecified) | – | inconclusive: 21.6%
O=C(OC12CC3CC(CC(C3)C1)C2)c1ccc(NCc2cc(O)ccc2O)cc1 | active: 14.6 µM | –
COc1ccc(N/C(=C2\CCCC2=O)C2CCCCC2)cc1 | inactive | –
COc1ccc(NC(=O)c2nc[nH]c2C(=O)Nc2ccccc2C)cc1 | – | inconclusive: -37.8% [cytotoxic]
O=c1[nH]cnc2c1ncn2[C@@H]1O[C@H](CO)[C@@H](O)[C@H]1O | inconclusive [rising, partial curve] | –
CCCS(=O)(=O)NC(=O)C1(C)CCN(C(=O)COCc2ccccc2)C1 (stereo unspecified) | inconclusive [rising, partial curve, poor fit] | –
FC(F)(F)c1cccc(-c2nc3nc(Cl)c(Cl)nc3[nH]2)c1 | inconclusive [cytotoxic, partial curve] | –
O=C(CN1CSCC1=O)N1CCN(S(=O)(=O)c2cccc(F)c2)CC1 | inactive | –
Cc1cccc(N2CCN(C(=S)Nc3ccc4nc(N5CCN(C)CC5)cc(C)c4c3)CC2C)c1 (stereo unspecified) | inactive | –
CC(=O)NN1C(=O)/C(=C/c2ccc(C(C)C)cc2)SC1=S | inconclusive [cytotoxic, single point] | –
Cn1c(=O)c2c(ncn2CC(=O)NC2CCCCC2)n(C)c1=O | – | inconclusive: -34.1% [cytotoxic]
CCCC(=O)NC(Nc1cccc(C(F)(F)F)c1)C(Cl)(Cl)Cl (stereo unspecified) | inconclusive [cytotoxic, single point] | –
COc1cc2[nH]c(=O)n(CCCCCC(=O)NCCc3c[nH]c4ccccc34)c(=O)c2cc1OC | inactive | –
